Laboratory results reported in PubChem BioAssay AID1963576 (National Center for Advancing Translational Sciences (NCATS), 2024).
The campaign covered roughly 46,000 compounds. About 60 (0.1%) were called active. Inconclusive results (about 3%) are left out. Calls follow the shape of the dose curve; as a rule, active = well fitted inhibition curve with a large enough effect; inconclusive = small, poorly fitted or top-dose-only effect; inactive = no such curve, though single readings can be large or run the other way. The list shows a part of the results.

assay: Primary qHTS assay for Inhibitors of ovarian cancer metastasis using an organotypic tumor microenvironment (TME) model.; also: nearly all actives have a fitted effect of over 65% in size;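 as to activity change, negative = inhibition: plate controls were DMSO wells for no effect and tomatine positive control wells for full effect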; conditions: SKOV3ip1-GFP adhesion/invasion on 3D omental model, fluorescence; series mostly up to 45.8 µM; activity change, negative = inhibition: at the top concentration
How it was run: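 A 3D layer of primary human omental fibroblasts, mesothelial cells, fibronectin and collagen I, grown 48 hr, received SKOV3ip1-GFP cells in serum-free medium plus compounds at 0.36-46 umol/L. After 2 hr RT and 16 hr 37 C, fixed adherent GFP cells were counted; normalized to DMSO and tomatine.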

Activity change, negative = inhibition, inactive:
Cc1c(C(=O)OC2CCCCC2)[nH]c2c1C(=O)CC(c1ccccc1)C2 (stereo not given) -6.17%, COc1ccc(C2C=C(c3ccccc3)Nc3nc(NS(=O)(=O)c4ccc(C)cc4)nn32)cc1 (stereo not given) 8.64%, Cc1ccc2oc(=O)c3cnn(CC(=O)N4CCN(c5cccc(C(F)(F)F)c5)CC4)c3c2c1 -6.26%, O=S(=O)(c1cccc(C(F)(F)F)c1)N1CCC(Oc2ccc(-n3cnnn3)cc2)CC1 4.81%, CCC(C)NC(=O)CSc1nc2c(sc3ccccc32)c(=O)n1CCc1ccccc1 (stereo not given) 1.77%, CCN(CC)S(=O)(=O)c1ccc2c(c1)N(CC(=O)NCc1ccc(F)cc1)C(=O)CO2 -5.12%, CN(C)N=Nc1nc[nH]c1C(N)=O -11.7%, O=C(Nc1cccnc1)N1CCC(Cc2cccc(Oc3ccc(C(F)(F)F)cn3)c2)CC1 -3.69%, O=C(Nc1ccc([N+](=O)[O-])cc1Cl)c1cc(Cl)ccc1O -15%, CCCN1CCc2nc(SCC(=O)Nc3ccc(C)c(Cl)c3)[nH]c(=O)c2C1 2.74%, CN(C)c1ccc(C2CC(c3c(O)n(C4CCCCC4)c(=O)[nH]c3=O)=Nc3ccccc3S2)cc1 (stereo not given) 1.31%, COc1cccc(NC(=O)Cn2c(=O)n(Cc3ccccc3)c(=O)c3c2c2cc(C)ccc2n3C)c1 -29.2%, Cc1cc(C)c2oc(-c3cc(NC(=O)Cc4ccccc4)ccc3Cl)nc2c1 -0.939%, COC(=O)c1ccc(NC(=O)CCn2cccn2)cc1 -1.15%, c1ccc(CSc2nnc(C3CCNCC3)o2)cc1 3.65%, COc1cccc(Oc2nc3c(c(=O)n(Cc4ccccc4Cl)c(=O)n3C)n2C)c1 5.07%, CCOc1ccc(NC(=O)N(Cc2ccc(CC)cc2)Cc2cn[nH]c2-c2ccc(OC)cc2)cc1 11%, Cc1ccc(C(C)C)c(OCC(=O)Nc2cccc(-c3nc4ncccc4o3)c2)c1 -25.6%, O=c1[nH]c2ccc(NCc3ccc(-c4ccccc4F)o3)cc2[nH]1 1.07%, COc1ccc(C(=O)N2CC(=O)Nc3ccc(C)cc3C2c2ccc(F)cc2)c(OC)c1 (stereo not given) -8.95%, CCc1ccccc1OCCSc1nc(-c2cccs2)nc2cc(=O)[nH]n12 1.36%, COc1ccc(CNC(=O)c2ccc3c(c2)N(Cc2ccccc2)C(=O)c2ccccc2S3=O)cc1 (stereo not given) -2.83%, COc1ccccc1NC(=O)c1nnn(-c2ccc(F)cc2)c1C 0.0939%, Cc1ccc(Cl)cc1N1CCN(C(=O)Cc2c(C(=O)O)c(C)cn2C)CC1 -2.04%, COc1cn(CC(=O)Nc2cc(C)ccc2C)c(CN2CCCCC2)cc1=O -8.54%, O=[N+]([O-])c1cc(-c2nc(-c3ccncc3)no2)ccc1NCc1ccccc1 -1.64%, O=C(c1cn(CCOc2ccc(Cl)cc2)c2ccccc12)C1CCCCC1 3.4%, O=C(Nc1ccc2oc(-c3cccc(Cl)c3Cl)nc2c1)c1cccc(Br)c1 -27.6%, CCOC(=O)c1cccc(NC(=O)N2CCC(CN3CCCCCC3)CC2)c1 0.972%, CNC(=O)C1CCC(Cn2c(=O)c3sccc3n(CC(=O)Nc3cc(F)ccc3F)c2=O)CC1 (stereo not given) 0.893%, CC(=O)Nc1cccc(NC(=O)CSc2cn(CC(=O)N3CCCCCC3)c3ccccc23)c1 -6.51%, CCN(CC)S(=O)(=O)c1ccc(C(=O)NCCSc2c(-c3ccc(OC)cc3)[nH]c3ccccc23)cc1 -14.7%, COc1ccccc1NC(=O)C1=C(C)Nc2nc(SCc3ccccc3Cl)nn2C1c1ccncc1 (stereo not given) 1.68%, O=C(CN1C(=O)C2(SCC(=O)N2c2ccc(F)cc2)c2ccccc21)NCCc1ccccc1 (stereo not given) -9.92%, O=C(O)c1cccnc1 -8.77%, COc1ccc(NC(=O)CCSc2nc(-c3ccco3)cc(C(F)(F)F)n2)cc1OC -2.77%, CCc1ccc(OCCSc2nc(-c3cccc(C)c3)nc3cc(=O)[nH]n23)cc1 5.73%, CCOc1ccc(C(=O)c2cn(CC(=O)Nc3cc(OC)ccc3OC)c3cc(OC)c(OC)cc3c2=O)cc1 2.77%, CCOc1cc(CNCCSc2nnnn2-c2ccccc2)ccc1OC 1.09%, CCOC(=O)C1CCN(C(c2ccc(F)cc2)c2sc3nc(-c4ccco4)nn3c2O)CC1 (stereo not given) -1.26%, Cc1cc(C)c(NC(=O)C(C)n2nnc3sc(-c4ccccc4)cc3c2=O)c(C)c1 (stereo not given) 2.12%, Cc1cc(C)cc(Nc2cc(C(=O)NCc3ccccc3)c3ccccc3n2)c1 34.3%, Cc1cc(C)cc(Nc2nc3c(S(=O)(=O)c4cccc(Cl)c4)nnn3c3ccsc23)c1 -12.2%, CCCCc1oc2ccccc2c1C(=O)c1cc(I)c(OCCN(CC)CC)c(I)c1 -10.6%, CCOC(=O)c1cc(-c2ccc(F)cc2)n(CCC(=O)NC2CCCCC2)c1C -22.1%, CSc1ccc(CCNC(=O)c2cc3c(-c4ccccc4F)nn(C)c3s2)cc1 42%, O=S(=O)(NCc1ccc(Cl)cc1)c1ccc(N2CCCCS2(=O)=O)cc1 -11.4%, CCOC(=O)c1cc2c(=O)n3ccccc3nc2n(C)c1=NC(=O)c1cc2ccccc2o1 4.4%, CC(=O)Nc1ccc(C(=O)CSc2nnc3ccc4ccccc4n23)cc1 -9.61%, Cc1cc(=O)n2nc(N3CCC(C(=O)Nc4ccc(Br)cc4F)CC3)sc2n1 -5.74%, Cc1ccc2c(c1)c1c(c(=O)n(-c3ccccc3C)c(=O)n1CC(=O)NCC1CCCO1)n2C (stereo not given) 10.7%, COc1cccc(NC(=O)c2ccc(-c3nc(COc4ccc(C)cc4)c(C)o3)cc2)c1 -15.2%, OC[C@H]1OC(O)C[C@@H](O)[C@H]1O (stereo not given in full) 2.84%, Cc1ccc(C)c(NC(=O)CCCN2C(=O)C(c3ccccc3)Oc3cccnc32)c1 (stereo not given) 25.4%, COc1cc2c(=O)n(CCC(=O)NCC3CCCO3)c(=O)n(CC(=O)Nc3ccc(F)cc3)c2cc1OC (stereo not given) 9.17%, COc1ccc(S(=O)(=O)N(CC(=O)Nc2cccnc2)c2ccc(C)cc2)cc1OC 3.11%, CCc1ccc(-n2c(CCC(=O)O)ccc2-c2ccc(F)cc2)cc1 6.6%, CCOc1ccccc1NC(=O)COc1ccc(S(=O)(=O)NC2CCCCC2)cc1 0.614%, CCn1c(CN2CCCCC2)nc2cc(NC(=O)c3ccc([N+](=O)[O-])cc3)ccc21 -5.55%, O=C(Nc1ccc(F)c(F)c1)C1CCCN1S(=O)(=O)c1cccc2nsnc12 (stereo not given) 8.02%, CCOc1ccccc1CNC(=O)c1cc(-c2ccc(C)c(C)c2)nc2ccccc12 -0.159%, CCc1ccc(CNC(=O)CCn2c(=O)c3cccn3c3ccc(F)cc32)cc1 -10.1%, Cc1ccc(-n2nnc(-c3nsc(NC(=O)c4ccc(C)c(C)c4)n3)c2C)cc1 -10.3%, CCc1ccc(C2NC(=O)c3[nH]nc(-c4cccc(OC)c4)c32)cc1 (stereo not given) -3.08%, CC(C)Oc1ccc(CNC(=O)C2CCN(c3nc4ccccc4n(C)c3=O)CC2)cc1 -2.46%, Cc1oc2ncn(C)c(=O)c2c1C(=O)NCCCN(Cc1ccccc1)C(C)C 9.55%, Cc1ccc(NC(=O)Cn2nnc(C(=O)NCCc3ccccc3)c2N)cc1C -9.5%, Cc1ccc(C(=O)Nc2nc(-c3ccccc3)ns2)cc1 -7.13%, Cc1ccsc1CN(C(=O)c1oc2ccccc2c1C)C1CCS(=O)(=O)C1 (stereo not given) -6.96%, Cc1ccc(CNC(=O)C(=O)NCC(c2cccnc2)N2CCN(c3ccccc3F)CC2)cc1 (stereo not given) 16.1%, CCCS(=O)(=O)N1CCC(n2c(C(F)(F)F)nc3cccnc32)CC1 -10.7%, CN1CCN(c2ccc3nc(-c4c(N)c5c(F)cccc5[nH]c4=O)[nH]c3c2)CC1 11.8%, COc1ccccc1CC(=O)Nc1ccc2nc(N3CCC(C)CC3)cc(C)c2c1 12.3%

outcome, inactive:
CCCOc1ccc(C2C(=O)N(C3CCCCCC3)CC(=O)N2Cc2ccc(OC)cc2)cc1OC (stereo not given), Cc1cc(N2CCN(c3cccc(C(F)(F)F)c3)CC2)n2nc(-c3ccccc3C)nc2n1, COc1ccc(NC(=O)C2=C(C)Nc3c(C(=O)Nc4ccc(C)cc4)cnn3C2c2cc(OC)ccc2OC)cc1 (stereo not given), CCOc1ccc(C(=O)N2CCC(c3nc(-c4ccc(S(=O)(=O)N5CCCC5)cc4)no3)CC2)cc1, CCOc1ccc(-c2cc3c(=O)n(Cc4nc(-c5ccc(OC)cc5OC)oc4C)ccn3n2)cc1Cl, CC(=O)Nc1ccc(S(=O)(=O)NC2=NCN(C(C)C)CN2)cc1, Cc1cc(F)ccc1NC(=O)C(C(C)C)N1Cc2ccccc2C1=O (stereo not given), CCC(=O)N1CCc2cc(Br)cc(S(=O)(=O)CCC(=O)NCCc3ccc(C)cc3)c21, O=c1c(-c2cc(-c3ccc(Cl)cc3)nc3c2COc2ccccc2-3)coc2ccccc12, Cc1sc2ncn(CC(=O)N3CCN(c4ccccc4F)CC3)c(=O)c2c1S(=O)(=O)N1CCN(c2ncccn2)CC1, CN(CC(=O)NCc1ccccc1Cl)S(=O)(=O)c1ccc2c(c1)c(=O)n(C)c(=O)n2C, CC(=O)c1c(C)oc2ccc(N(C(=O)c3ccncc3)S(=O)(=O)c3ccc(C)cc3C)cc12, COc1ccc(-c2ccc(=O)n(CC(=O)NCCc3ccccc3)n2)cc1, Cc1cccc(NC(=O)Cn2c(=O)n(CCC(=O)N3CCc4ccccc4C3)c(=O)c3ccccc32)c1, CCOC(=O)c1cccc(NC(=O)c2cc3cc4ccc(C)cc4nc3s2)c1, CCOc1ccc(NC(=O)NCCN2CCN(c3ccccc3F)CC2)cc1, Nc1c(C(=O)Nc2ccc(Br)cc2)sc2nc(-c3ccncc3)ccc12, O=C(CNC(=O)c1ccc(Cl)cc1)OCc1cc(=O)n2nc(C3CCCCC3)sc2n1, CCn1c(=O)c2sccc2n2c(CCC(=O)Nc3ccc(OC)c(Cl)c3)nnc12, COc1cccc2sc(N3CCN(C(=O)CCS(=O)(=O)c4ccc(F)cc4)CC3)nc12, Cc1ccc(C)c(Cn2c3ccccc3c3cnn(CC(=O)NC(C)c4ccccc4)c(=O)c32)c1 (stereo not given), CS(=O)(=O)N1CCc2cc(C(=O)Nc3cccc(F)c3)ccc21
